The campaign covered roughly 7,900 compounds. About 400 (5.1%) showed an effect of 50% or more. This is one part of the list. Non-standard residues stand in square brackets, D forms with d. Residues, ends and D or L forms follow the SMILES beside them. ξ: configuration not given here. *: point of attachment. Acryloyl = C=CC(=O)*; ξP = O=C(O)C1CCCN1
Each compound was assayed against Parkinson's disease protein 7 (PARK7/DJ1) (human, UniProt Q99497) (assay: primary screen, percent inhibition; read as competition with a fluorescent probe by fluorescence polarization; higher = more effect of the substance). Conditions: 100 µM.
Sequence of Parkinson's disease protein 7 (PARK7/DJ1) (Q99497 whole entry, looked up, the tested form may be a part): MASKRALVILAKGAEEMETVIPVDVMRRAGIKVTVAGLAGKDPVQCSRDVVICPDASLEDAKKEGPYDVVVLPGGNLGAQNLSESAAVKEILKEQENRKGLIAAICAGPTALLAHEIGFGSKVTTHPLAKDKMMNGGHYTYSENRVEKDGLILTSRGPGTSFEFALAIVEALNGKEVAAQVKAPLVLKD
Procedure, shortened: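 Covalent fragments at 100 μM final were incubated 2 h with 0.2 μM PARK7, then 20 nM probe JYQ-107 added for a further 2 h. Fluorescence polarization read at 480/520 nm; relative FP loss versus reference controls gave remaining enzyme activity.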

SMILES | Inhibition % [%]
O=C(CCl)NCCc1ccsc1 | 27.9
CCn1c(C)cc(C(=O)CCl)c1C | 56
O=C(CN1CCSC1=O)Nc1nc2c(s1)CCCCC2 | 12.6
CC(c1ccsc1)N1CCN(c2ccc(C#N)nc2)CC1 (stereo not drawn) | 7.22
NC1CCCN(C(=O)C=Cc2ccc(Cl)s2)C1 (stereo not drawn) | 5.91
N#Cc1cccc(Sc2cnccn2)n1 | 9.08
Cc1ccc(C=C(C#N)C(N)=O)cc1F | 5.82
Nc1ccc(CN2C(=O)CSC2=O)cc1 | 10.9
CC(=O)Nc1ccccc1OC(=O)N(C)C | 4.68
Cc1ccc(-n2nc(C)c(NC(=O)CCl)c2C)cc1 | 4.3
CSC1(CNc2cccc(C#N)n2)CCC1 | 11.9
Cc1cc(C=C(C#N)C(=O)N2CCCC2)cc(C)c1O | 4.3
O=C(c1cccs1)N1CCC(CS(=O)(=O)F)CC1 | 35.6
O=C(Oc1ccc(-c2nnco2)cc1)N1CCCCC1 | 4.2
Cl.O=S(=O)(F)CC1CCCNC1 (stereo not drawn) | 7.49
C#CCn1c(-c2ccccn2)noc1=O | 17.3
N#CC(=Cc1[nH]c2ccccc2c1Cl)C(N)=O | 2.42
O=C(CCl)NOCc1ccccc1 | 28.6
C=CC(=O)NC1COc2cc(OC)ccc2C1 (stereo not drawn) | 5.79
N#Cc1cc(NCC2CCSCC2)ncn1 | 12.1
Cc1c(C=C2C(=O)N(C)c3ccccc32)cc(C#N)n1C | 6.79
O=C(CN1CCSC1=O)Nc1ccc2[nH]ncc2c1 | 60.9
Cc1ccn(S(=O)(=O)c2ccc(Cl)cc2)n1 | -3.58
O=S1(=O)CCCC(CCl)C1 (stereo not drawn) | -4.37
C=CC(=O)N1CCSCC1c1ccccc1 (stereo not drawn) | 1.86
N#Cc1nnn(Cc2ccccc2)c1N | 7.25

SMILES | Inhibition % [%]
O=c1[nH]c(-c2ccc(S(=O)(=O)F)cc2)nc2ccccc12 | 13
C=CC(=O)NCC1(C)CCOC2(CCC2)C1 (stereo not drawn) | 13.5
CCOc1ccccc1C=C(C#N)C(N)=O | 8.86
CC1(C)OB(c2cccc(S(=O)(=O)C(F)(F)F)c2)OC1(C)C | 2.66
C=CC(=O)N1CCC(c2nccn2C)C1 (stereo not drawn) | 5.02
N#Cc1ncn(CC(=O)N2CCc3sccc3C2)n1 | 10.8
N#CC(=Cc1ccc(N)cc1)C(=O)N1CCCC1 | 4.39
O=C(CNC(=O)c1cccnc1S)Nc1ccccn1 | -0.307
Cl.O=c1[nH]nc(C2CCNCC2)o1 | 7.63
Cc1ccc(C=CS(=O)(=O)N2CCC(C(=O)O)CC2)cc1 | 10.7
CCCc1ccc(-c2csc(NC(=O)CCl)n2)cc1 | 4.59
O=C(CCl)NC(=O)NC1CCCC1 | 21.6
CC(C)[C@@H]1N[C@H]1c1ccccc1 (racemic) | 1.24
O=S1(=O)C=CC(Nc2cccc(Cl)c2)C1 (stereo not drawn) | 12.4
CN1CCCN(c2ccc(C#N)nc2)CC1 | 14.2
CC1(C(=O)Nc2cccc(S(=O)(=O)F)c2)CCOCC1 | 83.4
C=CC(=O)N1CCC1Cc1ccccc1 (stereo not drawn) | 4.58
O=C(Oc1ccc(Cl)cc1)N1CCOCC1 | 5.25
C=CC(=O)N1CCN(C(c2ccccc2)C(F)(F)F)CC1 (stereo not drawn) | 9.48
N#Cc1ccc(N2CCN(C(=O)C(F)F)CC2)cn1 | 3.45
CCc1noc(CC)c1CNCc1cccc(B(O)O)c1 | 10.2
C=CC(=O)N1CCCC(C(=O)Nc2nc(C)cs2)C1 (stereo not drawn) | 5.32
CCOc1ccncc1S(=O)(=O)Oc1cccc(F)c1 | 58.4
O=C(CCl)NCC1CCCCC1 | 13.2
Cc1nn(C)c(N)c1SC#N | -3.41
O=C(O)Cc1ccc(CS)cc1 | 58.7

SMILES | Inhibition % [%]
CC1(C)OB(Cc2cccc(F)c2)OC1(C)C | 6.15
O=C(CCl)N(Cc1ccccc1)Cc1ccco1 | 12.3
C=CC(=O)Nc1nccn1Cc1ccccc1F | 11.5
O=C(c1ccccc1)N1CCCC(CS(=O)(=O)F)C1 (stereo not drawn) | 71.4
O=C(O)CNC(=O)C12CC3CC(CC(Cl)(C3)C1)C2 | 7.56
N#Cc1cccc(N2CC(C(F)(F)F)C2)n1 | 9.07
O=S(=O)(c1ccc(F)cc1)n1nnc2ccccc21 | 9.15
CNC1CCCN(C(=O)C=Cc2cncc(F)c2)C1 (stereo not drawn) | 29.3
CC1(C)OB(C=C2CCS(=O)(=O)CC2)OC1(C)C | -3.41
Cc1cc(C(=O)CCl)c(C)n1C1CC1 | 65
N#Cc1ncn(CC(=O)c2ccc(Cl)s2)n1 | 3.91
CCOC1CCCN(c2nc3ccccn3c2C#N)C1 (stereo not drawn) | 0.705
N#Cc1cnc(Cl)cn1 | 6.47
Clc1csc(C2OCCO2)n1 | -0.564
O=C(CCl)c1c[nH]c2ccccc12 | 37.9
CCOc1cc(S(=O)(=O)n2ccc(C)n2)c(C)cc1C | 5.8
CC(C)CN1CCN(c2ccc(C#N)nc2)C(C)C1=O (stereo not drawn) | 5.84
C=CC(=O)N1CCOC(c2cccc(F)c2)C1 (stereo not drawn) | 4.38
C=CC(=O)N1CCC(c2nc(C(F)(F)F)c[nH]2)CC1 | 0.0839
C=CC(=O)NCC(=O)N1CCCC1C(=O)NC (stereo not drawn) (Acryloyl-Gly-[ξP]-NHMe) | 9.62
O=C(NCC1CCCC1)N1CCCCC1C1OCCO1 (stereo not drawn) | 5.42
CCCc1nc(C#N)c(NCc2cccnc2)o1 | 7.03
C=CC(=O)NC1CCN(Cc2ccc(Cl)cc2)CC1 | 9.09
CC1(C)C(=O)NC1C1CCCO1 (stereo not drawn) | 2.01
Cc1ccc(C=CS(=O)(=O)N(C)Cc2cscn2)cc1 | 5.66
C=CC(=O)NC1CCCN2CCCCC12 (stereo not drawn) | 35.3

SMILES | Inhibition % [%]
C=CC(=O)N(C)CC(=O)Nc1cc2c([nH]c1=O)CCCC2 | 22.7
CC1(C)OB(c2ccc3ccc(=O)[nH]c3c2)OC1(C)C | 4.19
CC1(C)OB(c2cccc(S(C)(=O)=O)c2)OC1(C)C | 6.06
NC1CCN(C(=O)C=Cc2cncc(F)c2)C1 (stereo not drawn) | 4.49
Cc1cnn(CC2CCCN2C2CC(C)OC2=O)c1 (stereo not drawn) | 4.2
CC(C)n1c(S)nc2ccccc2c1=O | 6.34
Cc1ccc(-c2csc(NC(=O)CCl)n2)cc1 | 11
COc1ccc2c(c1)CCCN2C(=O)CN1CCSC1=O | 2.74
CC1CC(Sc2ncc(-c3ccccc3)n2C)C(=O)O1 (stereo not drawn) | 3.52
CN(C(=O)CC1OCCCO1)C1CCCCC1 | 3.82
O=C1CC(CC(=O)N2CCC3(CCCC3)CC2)CO1 (stereo not drawn) | -0.128
Cc1nc(CCNC(=O)c2cccnc2S)sc1C | 2.24
O=c1c2cccnc2nc(S)n1CC1CCCO1 (stereo not drawn) | 3.76
Cc1[nH]c2ccccc2c1C(=O)CCl | 6.53
COc1ccc(C#N)nn1 | 6.61
O=C(O)CCc1ccc(S(=O)(=O)F)cc1 | 82.3
CC(=O)Nc1c(C)cc(C)c(C(=O)CCl)c1C | 14
C#CC(=O)c1cccc(C(F)(F)F)c1 | 8.24
C=CC(=O)NC1CC2(C1)CC2(F)F (stereo not drawn) | 6.68
C=CC(=O)NC1CC(=O)N(CC)C1 (stereo not drawn) | 8.72
O=C(C=Cc1nc2ccccc2s1)N1CCOCC1 | -0.634
O=C(CCl)N1CCc2ccccc21 | -0.66
Cc1ccccc1CN(C)C(=O)CCl | 56.6
C=CC(=O)NC1CC(F)(F)C1 | 3.5
O=C(CCl)c1c[nH]c2nccc(Cl)c12 | 2.3
O=C(CCl)Nc1ccc(Br)cc1C(=O)O | 46.1

SMILES | Inhibition % [%]
CN(C(=O)CCl)C1CC1 | -0.367
COCC(=O)Nc1ccc(S(=O)(=O)F)cc1 | 13.6
CC(c1ccc(Cl)cc1)N(C)C(=O)CCl (stereo not drawn) | 98
N#CN(Cc1ccon1)c1ccc(F)c(Cl)c1 | 6.11
C=CC(=O)N(C)CC1=CCCOC1 | 1.26
C=CC(=O)N(C)C1CCCc2nc(C)sc21 (stereo not drawn) | 7.33
C=CC(=O)N1CC(C)OC2(CCOC2C)C1 (stereo not drawn) | 5.89
CC1(C)OB(c2ccccc2Br)OC1(C)C | 4.04
C=CC(=O)NC1CCc2c(Cl)cccc21 (stereo not drawn) | 0.654
C=CC(=O)N1CCN(C)C(c2nc(C3CC3)no2)C1 (stereo not drawn) | 13
C=CC(=O)N1CC(OC(C)(C)C)C1 | 11.1
Cc1ccc(-n2c(C)nnc2SC2CCOC2=O)cc1 (stereo not drawn) | 10.6
C=CC(=O)NC(C)c1csnn1 (stereo not drawn) | 10
OB(O)c1cccc(COC2CCOC2)c1 (stereo not drawn) | 1.29
Cc1n[nH]cc1Nc1ccc(Cl)c(C#N)n1 | 12.8
CCc1ccccc1N(C(C)=O)C1C=CS(=O)(=O)C1 (stereo not drawn) | 7.9
C=CS(=O)(=O)c1ccccc1 | 9.43
N#CN(CC(=O)NCC(F)(F)F)c1ccccc1 | 3.12
O=C1CCC(=O)N1Cc1cn(-c2ccc(F)c(Cl)c2)nn1 | 9
Cc1cccc(C)c1NC(=O)N[C@@H]1COC(=O)C1 | 7.98
O=C(NCC(O)c1ccncc1)c1cccnc1S (stereo not drawn) | 14.1
CC(=O)Nc1ccc(OC(=O)N(C)c2ccccc2)cc1 | 9.43
OB(O)c1ccc(OC2CCCCC2)cc1 | 2.79
O=C1CN(C(=O)C=Cc2cnc3ccccc3n2)CCN1 | 10.9
O=C(C1CCOCC1)N1CCC(S(=O)(=O)F)CC1 | 30.7

Source: publication PMC9574860, “Chemical Toolkit for PARK7: Potent, Selective, and High-Throughput” (Journal of Medicinal Chemistry, 2022)
